Measurements as given in the supplement of paper PMC3334620.
The full ranking holds about 33,000 sequences; the median of “E-score (-0.5 to 0.5)” is about -0.032, and the highest 2% start at about 0.36. The list shows a part of the results.

What follows are sequences tested against T1, Sko1 (UniProt Q02100) (assay: PBM E-score (8-mer binding enrichment) (E-score (-0.5 to 0.5)); higher = stronger / more preferred TF binding; most listed sequences are background and not binding sites). Details: protein concentration: 200 nM; construct: GST-full length.
T1 sequence: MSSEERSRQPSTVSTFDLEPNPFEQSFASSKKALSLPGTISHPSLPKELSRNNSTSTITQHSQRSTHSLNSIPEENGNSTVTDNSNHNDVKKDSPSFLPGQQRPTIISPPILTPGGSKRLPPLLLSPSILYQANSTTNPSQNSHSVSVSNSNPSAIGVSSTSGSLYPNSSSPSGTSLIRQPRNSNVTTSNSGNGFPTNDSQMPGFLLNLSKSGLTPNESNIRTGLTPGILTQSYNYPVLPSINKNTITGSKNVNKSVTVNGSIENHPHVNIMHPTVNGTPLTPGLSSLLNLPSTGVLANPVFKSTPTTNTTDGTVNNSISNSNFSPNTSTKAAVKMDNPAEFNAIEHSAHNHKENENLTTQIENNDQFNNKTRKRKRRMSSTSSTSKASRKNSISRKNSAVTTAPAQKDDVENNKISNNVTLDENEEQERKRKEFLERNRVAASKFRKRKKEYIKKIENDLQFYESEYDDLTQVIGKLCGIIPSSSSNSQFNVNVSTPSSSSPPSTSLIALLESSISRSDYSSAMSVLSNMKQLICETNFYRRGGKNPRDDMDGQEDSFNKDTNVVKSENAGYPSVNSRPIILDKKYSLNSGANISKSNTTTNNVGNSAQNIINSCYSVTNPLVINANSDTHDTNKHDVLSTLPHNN
In short: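 Full-length yeast transcription factors or their DNA-binding domains, GST-tagged and expressed with PURExpress, were applied at about 100-200 nM to universal all-10-mer Agilent arrays. These arrays had been made double-stranded by primer extension on fresh or once-stripped slides. Detection used fluorescent anti-GST, normalisation used masliner, and E-scores for ungapped eight-base words pooled with reverse complements came from the Universal PBM Analysis Suite.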

| Sequence | PBM E-score |
| --- | --- |
| CTGGTGTC | -0.167 |
| CTCGACAG | -0.233 |
| CACAATCC | -0.0275 |
| AAGGAGCA | -0.195 |
| ACTCACGA | 0.0722 |
| ATTTTTAG | -0.0858 |
| CGGAAAGA | 0.0378 |
| GAGCTGCC | -0.271 |
| CCAAACTA | -0.0987 |
| AACGAACT | 0.0506 |
| TCGTCGCA | 0.0193 |
| GACACTGC | -0.0761 |
| CCATAACC | -0.235 |
| ATCGGTTG | -0.0726 |
| ATGAGGCG | -0.136 |
| ACGATAGT | 0.295 |
| CTGGGGGC | -0.19 |
| AGCAATGA | 0.0923 |
| GGAGTTCA | 0.0339 |
| TGATCACA | 0.0799 |
| AGCAACGG | -0.0513 |
| CGAATTCA | 0.0564 |
| CCTACGTA | 0.477 |
| AAATGGCG | 0.171 |
| CTGGATCA | -0.165 |

| Sequence | PBM E-score |
| --- | --- |
| CGGCAATA | -0.0262 |
| TAGAACTA | 0.073 |
| AGCCAGGC | -0.0211 |
| CAGTTCCG | -0.161 |
| AAATTTGG | 0.0593 |
| ATGAGTCC | 0.0501 |
| ATAAGCGC | -0.0312 |
| AGAGCCAT | -0.106 |
| GCCAGTCC | -0.34 |
| AGACCCCG | -0.247 |
| CTGCACTC | -0.16 |
| GACAAAGC | -0.138 |
| AATGAGGG | -0.15 |
| CTTGCACA | 0.0986 |
| CCCACGTC | 0.402 |
| CGCGGCAG | -0.218 |
| ACTGTTTC | 0.0897 |
| AGCCCGAC | -0.173 |
| ACCTATCT | -0.0547 |
| GATCGAGC | 0.00325 |
| GACCCCTA | -0.179 |
| TATCGATA | 0.0744 |
| ACCTGGAT | -0.245 |
| AGCCTAAG | -0.199 |
| ACGCGTAT | 0.389 |

| Sequence | PBM E-score |
| --- | --- |
| GGAGTAGA | -0.0416 |
| GTTGTCTA | 0.00931 |
| ATCGACAG | -0.0578 |
| CACACAGA | 0.0535 |
| AACCTATA | 0.0955 |
| AGCTGGTC | -0.145 |
| CGTCTAAG | 0.0318 |
| CCAAGACG | 0.169 |
| ACTGTCCA | -0.0614 |
| CTTGTCGA | -0.142 |
| AGTGGTCA | -0.131 |
| ATGAGGTC | 0.161 |
| CAAACGAA | 0.176 |
| CCACCCGG | -0.369 |
| AACAAACT | 0.144 |
| ACTCAAAG | -0.0822 |
| CCTCGACC | -0.267 |
| CTCAGCGA | -0.143 |
| AGCAAGCC | -0.119 |
| CCGGATGA | -0.0444 |
| AAGCGTGA | 0.105 |
| ACATGCAG | 0.00336 |
| CTACCGAG | -0.183 |
| CTTTAATA | 0.207 |
| AGACAAAC | 0.0999 |

| Sequence | PBM E-score |
| --- | --- |
| CGTCGAAC | 0.0482 |
| CTAGTGGC | -0.184 |
| AATAGGCC | -0.182 |
| AACAGGTA | 0.172 |
| CGGTTTAC | -0.00808 |
| TTTAGAAA | 0.182 |
| CGATCTCC | -0.0976 |
| AGTCCTGA | -0.0273 |
| GCTCTATA | -0.161 |
| AATGGACT | -0.0952 |
| CTGACTGA | -0.12 |
| AAAGTGGG | 0.0317 |
| AATTATAT | 0.201 |
| CGCGCGAG | -0.139 |
| AGAACAAA | 0.23 |
| CAGCTAGC | -0.124 |
| CACGAGAG | -0.235 |
| AATGGGAT | -0.106 |
| TCAGCTAA | -0.0261 |
| CTAATCTC | 0.079 |
| GACCTGAA | -0.31 |
| CGCATGTC | 0.268 |
| GATACATA | 0.149 |
| CGGAACCG | -0.239 |
| CCTTCCCC | -0.243 |

| Sequence | PBM E-score |
| --- | --- |
| CGTAACCA | 0.389 |
| ACACCAGA | 0.0476 |
| AAACGTTA | 0.3 |
| CCAAGGGC | -0.273 |
| AAAATCCG | -0.0369 |
| ATACTATA | 0.0423 |
| AAAATCGA | 0.103 |
| GCGTCTGA | 0.00529 |
| CTGAGGCA | -0.167 |
| CGTAAAAG | 0.288 |
| CGATGCGC | 0.152 |
| AACGATAT | 0.261 |
| CAACTCAA | 0.067 |
| TAGTCAAA | 0.191 |
| CATTGAGC | -0.0894 |
| CGATCTTA | -0.00227 |
| CGAAGAGC | -0.168 |
| ACGGTCCT | -0.245 |
| TTACGGAA | 0.246 |
| CCGCGTAA | 0.318 |
| ATGCGCTA | 0.0485 |
| CTTAAGAC | -0.0586 |
| AGTGCCGG | -0.292 |
| AACCGTGT | -0.0788 |
| ACGAGACG | 0.126 |

| Sequence | PBM E-score |
| --- | --- |
| AAACCCAT | 0.159 |
| GTTTGCCA | 0.0947 |
| ATGATGGG | -0.167 |
| GCGTCAAC | 0.302 |
| CACTAAGC | -0.0437 |
| AGCTTGAT | 0.0638 |
| ATAGCAAG | 0.0693 |
| CACGCAAG | 0.3 |
| ACTGCACC | -0.158 |
| GTTAGTCA | 0.0321 |
| CGGGGACA | -0.127 |
| CGAGGAGA | -0.416 |
| ACAGCGCG | -0.089 |
| ATCTGTGC | 0.018 |
| AGGAAGTC | -0.234 |
| AAGGCAAG | -0.0412 |
| CGCGCCTC | -0.0779 |
| AGTAATGA | 0.247 |
| GCCCGACC | -0.328 |
| AGTAGATA | 0.202 |
| AAGTCAGT | -0.0135 |
| AGTTGCCC | -0.107 |
| GGGAAAAA | -0.0662 |
| AGCCCACC | -0.268 |
| ACATTGAT | 0.0859 |

| Sequence | PBM E-score |
| --- | --- |
| CTGATTCC | -0.152 |
| GAGGGCGA | -0.265 |
| CAGAGGTC | -0.285 |
| CACGCCAC | 0.0399 |
| AAGCACGA | 0.0735 |
| AAAACAAA | 0.158 |
| CGTCACGC | 0.433 |
| CCCGATCC | -0.0903 |
| AATAGTTG | 0.144 |
| GCATTTAC | 0.162 |
| ACACCAAA | 0.211 |
| GCTGGAAC | -0.188 |
| GCACGTGC | 0.296 |
| CGGATTCC | -0.198 |
| AGGTAACC | -0.0468 |
| ATCTTTGA | 0.109 |
| GCCGACAA | -0.0507 |
| AAGCCCGT | -0.203 |
| CTTCAGCA | -0.0157 |
| AAGACTAG | -0.193 |
| GTCTTGAA | 0.019 |
| TAAAAACA | 0.28 |
